Results: the supplement of paper PMC12230231
± gives the standard deviation of the averaged measurements. Restriction of a single-cycle SIVsab GFP reporter by TRIM5α v1-loop variants in CRFK cells. Human variants: read share among cells still uninfected after two challenges over input, higher = gained restriction. Rhesus variants: share among infected cells over input, higher = lost restriction. Reporter dose not given per row. No active / inactive call per row; the paper calls a change when both replicates lie above its controls (mean + 2 SD of stop or wild-type variants, or the top frameshift score). Residues outside the varied loop are taken from Swiss-Prot. The paper reads the human single-substitution scores as noise; they and the rhesus combinations repeat poorly (rank correlation 0.3 to 0.4), indel scores repeat only for the top variants, rhesus substitutions well (0.9).

System: SIVsab (simian immunodeficiency virus of sabaeus monkeys), single-cycle GFP reporter, in CRFK cells
Assay: enrichment among uninfected cells over input (fold); higher = stronger restriction
Procedure: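 Pools of CRFK cells expressing variants of the TRIM5α v1 loop were challenged with the single-cycle reporter, sorted by GFP and sequenced; mean of two replicates.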

[1] = library: insertions and deletions

| Sequence | enrichment [1] | enrichment (library: human / rhesus combinations) |
| --- | --- | --- |
| MASGILVNVKEEVTCPICLELLTQPLSLDCGHSFCQACLTANHKKSMLDKGESSCPVCRISYQPENIRPNRHVANIVEKLREVKLSPEGQKVDHCARHGEKLLLFCQEDGKVICWLCERSQEHRGHHTFLTEEVAREYQVKLQAALEMLRQKQQEAEELEADIREEKASWKTQIQYDKTNVLADFEQLRDILDWEESNELQNLEKEEEDILKSLTNSETEMVQQTQSLRELISDLEHRLQGSVMELLQGVDGVIKRTENVTLKKPETFPKNQRRVFRAPDLKGMLEVFRELTDVRRYWVDVTVAPNNISCAVISEDKRQVSSPKPQIIYGARGTIYGARGTRYQTFVNFNYCTGILGSQSITSGKHYWEVDVSKKTAWILGVCAGFQPDAMCNIEKNENYQPKYGYWVIGLEEGVKCSAFQDSSFHTPSVPFIVPLSVIICPDRVGVFLDYEACTVSFFNITNHGFLIYKFSHCSFSQPVFPYLNPRKCGVPMTLCSPSS [human TRIM5α, 7-codon duplication at 328] | 0.423 ± 0.0064 |  |
| MASGILVNVKEEVTCPICLELLTQPLSLDCGHSFCQACLTANHKKSMLDKGESSCPVCRISYQPENIRPNRHVANIVEKLREVKLSPEGQKVDHCARHGEKLLLFCQEDGKVICWLCERSQEHRGHHTFLTEEVAREYQVKLQAALEMLRQKQQEAEELEADIREEKASWKTQIQYDKTNVLADFEQLRDILDWEESNELQNLEKEEEDILKSLTNSETEMVQQTQSLRELISDLEHRLQGSVMELLQGVDGVIKRTENVTLKKPETFPKNQRRVFRAPDLKGMLEVFRELTDVRRYWVDVTVAPNNISCAVISEDKRQVSSPKPQIIYGARGTRYQTFVNFNYCTGINYCTGILGSQSITSGKHYWEVDVSKKTAWILGVCAGFQPDAMCNIEKNENYQPKYGYWVIGLEEGVKCSAFQDSSFHTPSVPFIVPLSVIICPDRVGVFLDYEACTVSFFNITNHGFLIYKFSHCSFSQPVFPYLNPRKCGVPMTLCSPSS [human TRIM5α, 6-codon duplication at 343] | 2.12 ± 2.8 |  |
| MASGILVNVKEEVTCPICLELLTQPLSLDCGHSFCQACLTANHKKSMLDKGESSCPVCRISYQPENIRPNRHVANIVEKLREVKLSPEGQKVDHCARHGEKLLLFCQEDGKVICWLCERSQEHRGHHTFLTEEVAREYQVKLQAALEMLRQKQQEAEELEADIREEKASWKTQIQYDKTNVLADFEQLRDILDWEESNELQNLEKEEEDILKSLTNSETEMVQQTQSLRELISDLEHRLQGSVMELLQGVDGVIKRTENVTLKKPETFPKNQRRVFRAPDLKGMLEVFRELTDVRRYWVDVTVAPNNISCAVISEDKRQVSSPKPQIIYQARGTLYTFPSFTNFNYCTGILGSQSITSGKHYWEVDVSKKTAWILGVCAGFQPDAMCNIEKNENYQPKYGYWVIGLEEGVKCSAFQDSSFHTPSVPFIVPLSVIICPDRVGVFLDYEACTVSFFNITNHGFLIYKFSHCSFSQPVFPYLNPRKCGVPMTLCSPSS [human TRIM5α, 330-340 = QARGTLYTFPSFT] |  | 0.199 ± 0.11 |
| MASGILVNVKEEVTCPICLELLTQPLSLDCGHSFCQACLTANHKKSMLDKGESSCPVCRISYQPENIRPNRHVANIVEKLREVKLSPEGQKVDHCARHGEKLLLFCQEDGKVICWLCERSQEHRGHHTFLTEEVAREYQVKLQAALEMLRQKQQEAEELEADIREEKASWKTQIQYDKTNVLADFEQLRDILDWEESNELQNLEKEEEDILKSLTNSETEMVQQTQSLRELISDLEHRLQGSVMELLQGVDGVIKRTENVTLKKPETFPKNQRRVFRAPDLKGMLEVFRELTDVRRYWVDVTVAPNNISCAVISEDKRQVSSPKPQIIYGARGTRYQTFVNFNYTGILGSQSITSGKHYWEVDVSKKTAWILGVCAGFQPDAMCNIEKNENYQPKYGYWVIGLEEGVKCSAFQDSSFHTPSVPFIVPLSVIICPDRVGVFLDYEACTVSFFNITNHGFLIYKFSHCSFSQPVFPYLNPRKCGVPMTLCSPSS [human TRIM5α, 1-codon deletion at 345] | 0.661 ± 0.073 |  |
